Among all 310,000 compounds or so, about 2,200 (0.71%) showed an effect of 50% or more. The effect is printed as a negative number. The list shows a part of the results.
What follows are molecules tested against human ether-à-go-go-related gene (hERG) potassium channel (human, UniProt Q12809) (assay: primary screen, population patch clamp on CHO cells stably expressing hERG).
Sequence of human ether-à-go-go-related gene (hERG) potassium channel (Q12809 whole entry, looked up): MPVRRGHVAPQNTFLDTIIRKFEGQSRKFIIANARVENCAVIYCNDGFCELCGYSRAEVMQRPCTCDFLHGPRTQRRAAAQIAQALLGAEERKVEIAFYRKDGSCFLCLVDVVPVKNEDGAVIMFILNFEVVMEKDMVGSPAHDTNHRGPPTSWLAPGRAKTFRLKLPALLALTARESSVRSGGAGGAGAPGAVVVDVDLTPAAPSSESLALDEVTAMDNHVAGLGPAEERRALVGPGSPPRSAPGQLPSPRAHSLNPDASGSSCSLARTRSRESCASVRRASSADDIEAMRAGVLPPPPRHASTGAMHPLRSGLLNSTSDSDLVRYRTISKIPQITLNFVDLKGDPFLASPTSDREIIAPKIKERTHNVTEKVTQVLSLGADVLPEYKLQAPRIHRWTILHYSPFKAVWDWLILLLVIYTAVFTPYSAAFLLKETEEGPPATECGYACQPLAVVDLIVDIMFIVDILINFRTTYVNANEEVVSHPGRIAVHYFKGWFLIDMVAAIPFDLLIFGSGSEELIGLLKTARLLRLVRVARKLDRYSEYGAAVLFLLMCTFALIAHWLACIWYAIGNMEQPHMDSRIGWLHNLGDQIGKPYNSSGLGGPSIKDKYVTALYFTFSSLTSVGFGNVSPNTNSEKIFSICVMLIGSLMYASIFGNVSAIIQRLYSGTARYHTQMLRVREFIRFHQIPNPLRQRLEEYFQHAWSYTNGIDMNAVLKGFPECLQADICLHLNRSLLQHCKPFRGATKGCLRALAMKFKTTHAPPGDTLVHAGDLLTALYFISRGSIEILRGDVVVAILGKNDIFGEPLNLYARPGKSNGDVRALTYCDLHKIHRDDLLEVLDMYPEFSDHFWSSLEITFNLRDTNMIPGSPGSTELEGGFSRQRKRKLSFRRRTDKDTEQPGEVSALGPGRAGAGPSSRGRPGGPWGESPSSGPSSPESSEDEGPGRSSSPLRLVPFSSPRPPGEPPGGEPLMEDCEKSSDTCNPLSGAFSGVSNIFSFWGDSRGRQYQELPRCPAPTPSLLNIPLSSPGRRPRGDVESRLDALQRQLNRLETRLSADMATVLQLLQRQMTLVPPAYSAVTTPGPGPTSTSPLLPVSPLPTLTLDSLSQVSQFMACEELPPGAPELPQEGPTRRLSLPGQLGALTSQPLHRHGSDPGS

SMILES | hERG current change (%, negative = inhibition) at 1uM
CCCCOC(=O)c1ccccc1N1C(=O)C2C3CCC(C3)C2C1=O (centres unmarked) | 7.32%
O=C(Nc1ccccc1F)C(=Cc1sc(N2CCOCC2)nc1-c1ccccc1)C(=O)Nc1ccccc1F | 12.5%
Cc1ccc(-c2cccc(C(=O)NCCc3ccccc3)n2)c2ccccc12 | 10.9%
Cn1c(N/N=C/c2cc3ccccc3nc2Cl)nc2ccccc21 | 11.1%
c1ccc2c(c1)nnn2CNc1nccs1 | 12.3%
Cc1ccc2sc(C)[n+](CCCS(=O)(=O)[O-])c2c1 | 17.4%
CN(C(=O)CSc1nnc(C2CC2)n1C1CC1)C1(C#N)CCCCC1 | -0.0297%
COc1cc(CCCN2CCNC[C@@H]2C(C)O)cc(OC)c1OC (some centres unmarked) | 15.5%
CCN1CCN(C(=O)c2ccc(Cl)c(S(=O)(=O)N3CCCCC3)c2)CC1 | -24.2%
CCN(CC(=O)NCc1cccs1)C(=O)c1ccc(NS(=O)(=O)c2ccc(C(C)=O)cc2)cc1 | 3.59%
Cc1ccccc1NC(=O)CSc1nnc(-c2ccco2)n1N | 12.9%
O=c1nc2ccc(Cl)cn2c2ccc(S(=O)(=O)N3CCCCC3)cc12 | 9.86%
Cn1c(=O)c2nc3ccccc3nc2n(C)c1=O | 11.5%
O=C(CC(=O)NC1CCCCC1)N/N=C/c1ccccc1F | 13%
COc1ccccc1NC(=O)c1ccc2c(c1)N(CC(=O)NC(C)C)C(=O)C(C)(C)O2 | 15.3%
O=C(O)CCc1nnc(SCC(=O)Nc2cccc(C(F)(F)F)c2)[nH]c1=O | 20.7%
CCCN1C(=O)CC(Sc2ncccc2C(=O)O)C1=O (centres unmarked) | 7.75%
CCOC(=O)c1c(NC(=S)Nc2ccc(OC)cc2)sc2c1CCC2 | 8.5%
O=C(CSc1nc2ccccc2[nH]1)Nc1cc(C(F)(F)F)ccc1N1CCOCC1 | -0.419%
Cc1ccc(NC(=O)COc2ccc(S(=O)(=O)N3CCOCC3)cc2)cc1 | 13.6%
CCOC(=O)C1(CCCc2ccccc2)CCN(C(=O)c2ccoc2)CC1 | -1.47%
COc1cc(/C=N/NC(=O)c2cccs2)ccc1OCc1ccccc1 | 9.14%

SMILES | hERG current change (%, negative = inhibition) at 1uM
Cc1nc2nc(SCC(=O)c3cccc([N+](=O)[O-])c3)[nH]c2cc1Br | 9.12%
Cc1noc(NS(=O)(=O)c2ccc(NC(=O)CC(C)C)cc2)c1C | 16.9%
COc1ccc(CN(Cc2cccnc2)C(=S)NCCc2ccccc2)cc1OC.O=C(O)C(=O)O | -3.6%
Cc1cc2ccccc2n1CCNC(=O)c1ccc(S(=O)(=O)N2CCOCC2)cc1 | 14.3%
COCC(C)Nc1ncnc2c1cnn2-c1ccc(Cl)cc1 (centres unmarked) | 10.1%
Cc1cccc(C)c1OCCCN1CCCC1 | 8.78%
CCc1ccc(-c2nc(SCC(=O)NC3CCS(=O)(=O)C3)n[nH]2)cc1 (centres unmarked) | 9.14%
O=C(CCn1cncn1)N1CCCC(N2CCN(c3cccc(C(F)(F)F)c3)CC2)C1 (centres unmarked) | -19.4%
CC12CCCCC1=[N+]([O-])CN2O (centres unmarked) | 9.46%
Cc1ccc(OCC(=O)N/N=C/c2cn(C)c3ccccc23)cc1 | 6.6%
CCCCNC(=O)CNC(=S)N(Cc1ccc(C)cc1)Cc1ccco1 | 10.1%
CCc1[nH]nc(C(=O)N2CCCC(C(=O)c3cccc(C(F)(F)F)c3)C2)c1C (centres unmarked) | 10.3%
COc1ccccc1CNC(=O)C(=O)NCC1OCCCN1S(=O)(=O)c1cccs1 (centres unmarked) | 8.7%
CCOC(=O)c1c(C)n(C)c2ccc(OC(C)=O)cc12 | 5.13%
CS(=O)Cc1cc(Oc2ccccc2)nc(-c2ccncc2)n1 (centres unmarked) | 1.15%
Cc1cc(Cl)c(OCCCNC2CCCC2)c(Br)c1.O=C(O)C(=O)O | -6.84%
Cc1nc(/C(N)=N/OC(=O)c2ccc(Cl)cc2)c(C(F)(F)F)o1 | 9.64%
CC1CCCCN1C(=S)NCc1ccco1 (centres unmarked) | 6.7%
CCCCC(=O)Nc1ccc(NC(=O)CCCC)nc1 | -6.83%
CCn1c2ccccc2c2cc(/C=N/n3c(-c4cc(C)[nH]n4)n[nH]c3=S)ccc21 | 12.3%
COCCCn1c(=O)c2sccc2n(Cc2cc(C(=O)OC)ccc2OC)c1=O | 8.26%
CN(CC(=O)Nc1cccc(S(=O)(=O)NC2=NCCCCC2)c1)Cc1ccc(C(C)(C)C)cc1.O=C(O)C(=O)O | 12.9%

From publication PMC4336329 (PLoS ONE, 2015)
